Measurements from PubChem BioAssay AID743279 (National Center for Advancing Translational Sciences (NCATS), 2014).
Hit rate of the full screen: of about 360,000 compounds, about 17,000 (4.7%) were called active. Inconclusive means that the source gave no clear call. Such entries were picked first, then a sample of the others. No stated cut-off is given here; in the data, active means activity change below about -50%; inconclusive means mostly about -30% to -49%; inactive means weaker than that.

Test: qHTS for Inhibitors of Inflammasome Signaling: IL-1-beta AlphaLISA Primary Screen
Conditions: THP-1 LPS/ATP IL-1B secretion, 16 h; at 57.5 µM, hits give low values
Summary of the method: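 Secreted IL-1B measured by AlphaLISA bead assay after 16 h compound exposure of THP-1 cells; compounds (final up to 57.5 uM) added 1 h before LPS (250 ng/mL) and ATP (1.25 mM) stimulation; lower signal means less secretion.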
On the % scale 0 is the no-effect control and ±100 the full control effect.

| SMILES | activity change |
| --- | --- |
| O=C(NC1CCN(Cc2ccc(Cl)cc2Cl)CC1)c1ccccc1 | active: -50.1% |
| COc1ccc(OC)c(CN2CCN(C(=O)c3ccc(S(=O)(=O)N4CCCCCC4)cc3)CC2)c1 | inconclusive: -43.5% |
| COc1ccc(C(=O)NC(=C(Cl)Cl)S(=O)(=O)c2ccc(C)cc2)cc1 | active: -94.8% |
| [O-][n+]1c2c(c3c4non(O)c4ccc31)CCCC2 | active: -60.7% |
| O=C(COC(=O)c1ccc(O)cc1)NC1CCCCCCC1 | inactive: 48.7% |
| O=[S@]1Oc2ccccc2-c2ccccc21 | inconclusive: -49.1% |
| O=C(CCc1ccc(S(=O)(=O)N2CCOCC2)cc1)Nc1nc(COc2ccccc2)cs1 | inconclusive: -47.2% |
| COc1ccc(-n2c(C)c(C(C)=O)c3cc(O)ccc32)cc1 | inactive: 0% |
| CCOc1cc(-c2cc(-c3ccccc3)nc(N)c2C#N)ccc1O | inconclusive: -33.6% |
| CCCCn1c(N)c(N(CCOC)C(=O)CN(C)CC(=O)Nc2ccc(Cl)c(Cl)c2)c(=O)[nH]c1=O | inconclusive: -33.6% |
| CC(=O)Nc1ccc(S(=O)(=O)N(C)CCOCc2ccccc2)cc1 | inactive: -12.5% |
| Cc1cc(C)c(S(=O)(=O)N2CCN(C(=O)c3ccccc3OCc3c(C)noc3C)CC2)c(C)c1 | inconclusive: -30.4% |
| CCn1nnc(NC(=O)c2sc3ccccc3c2Cl)n1 | inactive: 2.48% |
| COc1ccc(-n2c(SCCNCCO)nc3sc4c(c3c2=O)CCCC4)cc1 | active: -75.2% |
| CN(Cc1ccccc1)C(=O)C1CCCN(Cc2ccc(Cl)cc2)C1 (configuration not stated) | inconclusive: -35.8% |
| O=C(NC(=S)Nc1ccc([N+](=O)[O-])cc1O)C1CCCCC1 | inconclusive: -31.7% |
| O=C(Nc1ccc(Cc2ccncc2)cc1)c1ccc(Br)o1 | inconclusive: -32.1% |
| O=C(CN1CCCC1)Nc1ccc2c(c1)CCC2 | inactive: 2.16% |
| CCN1CCN(CCCNC(=O)c2cc3cc4ccc(OC)cc4nc3o2)CC1 | active: -84.9% |

| SMILES | activity change |
| --- | --- |
| Cc1cc(-c2ccccc2)c2c(n1)sc1c(O)cc(=O)[nH]c12 | inactive: 12.7% |
| CC(C)(C)C(=O)O/N=C(\N)Cc1ccc(-c2csnn2)cc1 | inconclusive: -34.3% |
| O=C(NCc1ccccc1)NC1(C(=O)N2CCOCC2)CCCCC1 | inconclusive: -39.4% |
| COc1cc2c(cc1NC(=O)CSc1cccc[n+]1[O-])oc1ccccc12 | inconclusive: -33.8% |
| CCn1c(Cc2ccc(OC)cc2)nc2ccccc21 | active: -50.5% |
| O=C(Nc1ccccc1C(=O)NC1CC1)c1ccc([N+](=O)[O-])o1 | active: -93.3% |
| CSc1ncc(F)c(N(CCO)CCO)n1 | inactive: 0% |
| O=C1c2ccccc2-c2onc3ccc(NCCCn4ccnc4)c1c23 | active: -97.4% |
| CC1=CC(C)(C)n2c(O)c(N=NC(N)=S)c3c(C)c(C)cc1c32 | inactive: -15.8% |
| C=C1C(=O)[C@]23C[C@H]1CCC2[C@@]1(C)C(C[C@@H]3O)[C@](C)(C(=O)O)CC[C@@H]1O (some centres not stated) | active: -91.2% |
| CCCN(CCC)CCNC(=O)CS(=O)Cc1nc(-c2ccc(C)cc2)oc1C (configuration not stated) | inconclusive: -30.9% |
| O=C(N/N=C/c1cc([N+](=O)[O-])ccc1O)/C(=C\c1cccs1)NC(=O)c1ccccc1 | inactive: 245% |
| O=C(O)CCC1OC(=O)C(O)=C1c1ccccc1 (configuration not stated) | inactive: 24.6% |
| COc1cccc(CN2CCC(C(=O)NC(C)c3cccc4ccccc34)CC2)c1 (configuration not stated) | inconclusive: -47.6% |
| O=C(Nc1ccc(-c2noc(CCc3ccccc3)n2)cc1)c1cccnc1 | inconclusive: -45.4% |
| CCCn1c(N)c(C(=O)CSc2nnc(N)s2)c(=O)[nH]c1=O | inactive: 8.74% |
| CCN(CC)c1ccc(Nc2nc(N3CCOCC3)c3ccccc3n2)cc1 | active: -111% |
| COc1ccc(CN(C(=O)c2oc3cc(C)c(C)cc3c2C)C2CCS(=O)(=O)C2)cc1OC (configuration not stated) | inconclusive: -38.1% |
| Cc1ccc(SCCC(=O)N2CCN(S(=O)(=O)c3ccccc3)CC2)cc1 | inactive: -5.03% |

| SMILES | activity change |
| --- | --- |
| CN(C)c1cccc(NC(=O)c2cccc3ccccc23)c1 | inactive: -3.04% |
| C[C@H]1CN=C(N(C)C)N1CCCC1CCCC1 | inconclusive: -45.9% |
| COc1ccc(C(=O)NN2CCOCC2)cc1[N+](=O)[O-] | inconclusive: -36.5% |
| O=C(Cn1c2c(c(-c3ccccc3Cl)cc1=O)CCC2)NCCCN1CCOCC1 | inconclusive: -34.1% |
| c1ccc2cc(OCc3nc4ccccc4[nH]3)ccc2c1 | inconclusive: -48.6% |
| CC(C)c1ccc(NC(=O)C2CCN(S(=O)(=O)c3ccc4c(c3)C(C)(C)C(=O)N4C)CC2)cc1 | inactive: 49.7% |
| COC(=O)c1cccc(NC(=O)CSc2nc(O)c(-c3ccccc3)c(=O)[nH]2)c1 | inconclusive: -31.9% |
| CCC(=O)N1CCCC1(C)C(=O)Nc1ccc2c(c1)CCN2C(C)=O (configuration not stated) | inactive: -2.74% |
| COc1ccc(-c2oc3ncnc(NCCCN4CCOCC4)c3c2-c2ccc(OC)cc2)cc1 | inconclusive: -48.1% |
| FC(F)(F)c1cccc(CNC(=S)Nc2ccccc2)c1 | active: -79% |
| COc1ccc(NC(=O)CN2C(=O)NC(C)(c3ccc4c(c3)OCCO4)C2=O)cc1S(N)(=O)=O (configuration not stated) | inactive: 15.4% |
| O=C(Nc1cc(S(=O)(=O)N2CCOCC2)ccc1N1CCOCC1)c1cccc(S(=O)(=O)N2CCCCC2)c1 | inconclusive: -40.5% |
| CC1=C(C(=O)Nc2cccc(C(=O)NC(C)c3ccccc3)c2)SCCO1 (configuration not stated) | inactive: -10.5% |
| COC(=O)c1c(NC(=O)C2CC(=O)NN2Cc2ccccc2)sc(C)c1C (configuration not stated) | inconclusive: -31.8% |
| COc1cc2c(cc1OC)C(C)N(C(=O)[C@@H](NC(=O)c1ccccc1)C(C)C)CC2 (some centres not stated) | active: -51.8% |
| Nc1c(Cl)ncnc1N/N=C/c1ccncc1 | inactive: 1.39% |
| CCc1ccc(C2CC(c3ccc(Cl)cc3)n3nc(N)nc3N2)cc1 (configuration not stated) | inconclusive: -32.5% |
| COc1cc(CNC2CCCCCCC2)c(Br)cc1OCCO | inconclusive: -42.6% |
| COc1ccc(N=Cc2nc(-c3ccccc3)oc2OC(=O)c2ccccc2)cc1 | inactive: -0.393% |
